Results from patent US11618753B2 (priority 2018, dated 2023).

These compounds were tested on MLKL phosphorylation, HT29-L23 human colorectal adenocarcinoma cells (assay: cells). Details: read-out: pMLKL HCS Cell Assay (IC50, uM).

| SMILES | IC50 [µM] |
| --- | --- |
| COc1cc(F)c(-c2cc(C(F)(F)F)c3c(N)ncnn23)cc1C(=O)N[C@@H]1CN(C(=O)CC(O)(C(F)(F)F)C(F)(F)F)C[C@@H]1F [Example 565, 5-(4-amino-5-(trifluoromethyl)pyrrolo[2,1-f][1,2,4]triazin-7-yl)-4-fluoro-N-((3R,4S)-4-fluoro-1-(4,4,4-trifluoro-3-hydroxy-3-(trifluoromethyl)butanoyl)pyrrolidin-3-yl)-2-methoxybenzamide] | 0.0029 |
| CNc1ccc(-c2cc(C(F)(F)F)c3c(N)ncnn23)cc1C(=O)N[C@@H]1CN(C(=O)C2CC(F)(F)C2)C[C@@H]1F [Example 566, 5-(4-amino-5-(trifluoromethyl)pyrrolo[2,1-f][1,2,4]triazin-7-yl)-N-((3R,4S)-1-(3,3-difluorocyclobutane-1-carbonyl)-4-fluoropyrrolidin-3-yl)-2-(methylamino)benzamide] | 0.031 |
| CCc1c(F)cc(-c2cc(C(F)(F)F)c3c(N)ncnn23)cc1C(=O)N[C@@H]1CN(C(=O)CC(O)(C(F)(F)F)C(F)(F)F)C[C@@H]1F [Example 567, 5-(4-amino-5-(trifluoromethyl)pyrrolo[2,1-f][1,2,4]triazin-7-yl)-2-ethyl-3-fluoro-N-((3R,4S)-4-fluoro-1-(4,4,4-trifluoro-3-hydroxy-3-(trifluoromethyl)butanoyl)pyrrolidin-3-yl)benzamide] | 0.015 |
| COc1cc(F)c(-c2cc(C(F)(F)F)c3c(N)ncnn23)cc1C(=O)N[C@@H]1CN(C(=O)C2CC(F)(F)C2)C[C@@H]1F [Example 568, 5-[4-amino-5-(trifluoromethyl)pyrrolo[2,1-f][1,2,4]triazin-7-yl]-N-[(3R,4S)-1-(3,3-difluorocyclobutanecarbonyl)-4-fluoropyrrolidin-3-yl]-4-fluoro-2-methoxybenzamide] | 0.0052 |
| Nc1ncnn2c(-c3cc(F)c(CF)c(C(=O)N[C@@H]4CN(C(=O)CC(O)(C(F)(F)F)C(F)(F)F)C[C@@H]4F)c3)cc(C(F)(F)F)c12 [Example 570, 5-[4-amino-5-(trifluoromethyl)pyrrolo[2,1-f][1,2,4]triazin-7-yl]-3-fluoro-N-[(3R,4S)-4-fluoro-1-[4,4,4-trifluoro-3-hydroxy-3-(trifluoromethyl)butanoyl]pyrrolidin-3-yl]-2-(fluoromethyl)benzamide] | 0.0012 |
| CCc1ccc(-c2cc(C(F)(F)F)c3c(N)ncnn23)c(F)c1C(=O)N[C@@H]1CN(C(=O)CC(O)(C(F)(F)F)C(F)(F)F)C[C@@H]1F [Example 571, 3-[4-amino-5-(trifluoromethyl)pyrrolo[2,1-f][1,2,4]triazin-7-yl]-6-ethyl-2-fluoro-N-[(3R,4S)-4-fluoro-1-[4,4,4-trifluoro-3-hydroxy-3-(trifluoromethyl)butanoyl]pyrrolidin-3-yl]benzamide] | 0.014 |
| COc1cc(C(=O)N[C@@H]2CN(C(=O)c3ccccc3F)C[C@@H]2F)cc(-c2cc(C(F)(F)F)c3c(N)ncnn23)c1 [Example 572, 3-[4-amino-5-(trifluoromethyl)pyrrolo[2,1-f][1,2,4]triazin-7-yl]-N-[(3R,4S)-4-fluoro-1-(2-fluorobenzoyl)pyrrolidin-3-yl]-5-methoxybenzamide] | 0.0028 |
| COc1cc(C(=O)N[C@@H]2CN(C(=O)C(C)C(F)(F)F)C[C@@H]2F)cc(-c2cc(C(F)(F)F)c3c(N)ncnn23)c1 (stereo partly drawn) [Example 573, 3-[4-amino-5-(trifluoromethyl)pyrrolo[2,1-f][1,2,4]triazin-7-yl]-N-[(3R,4S)-4-fluoro-1-(3,3,3-trifluoro-2-methylpropanoyl)pyrrolidin-3-yl]-5-methoxybenzamide] | 0.017 |
| COc1cc(C(=O)N[C@@H]2CN(C(=O)C3CC(F)C3)C[C@@H]2F)cc(-c2cc(C(F)(F)F)c3c(N)ncnn23)c1 (stereo partly drawn) [Example 574, 3-[4-amino-5-(trifluoromethyl)pyrrolo[2,1-f][1,2,4]triazin-7-yl]-N-[(3R,4S)-4-fluoro-1-(3-fluorocyclobutanecarbonyl)pyrrolidin-3-yl]-5-methoxybenzamide] | 0.022 |
| COc1cc(C(=O)N[C@@H]2CN(C(=O)C3(F)CC3)C[C@@H]2F)cc(-c2cc(C(F)(F)F)c3c(N)ncnn23)c1 [Example 576, 3-[4-amino-5-(trifluoromethyl)pyrrolo[2,1-f][1,2,4]triazin-7-yl]-N-[(3R,4S)-4-fluoro-1-(1-fluorocyclopropanecarbonyl)pyrrolidin-3-yl]-5-methoxybenzamide] | 0.031 |
| COc1cc(C(=O)N[C@@H]2CN(C(=O)CC(O)(C(F)(F)F)C(F)(F)F)C[C@@H]2F)cc(-c2cc(C(F)(F)F)c3c(N)ncnn23)c1 [Example 577, 3-[4-amino-5-(trifluoromethyl)pyrrolo[2,1-f][1,2,4]triazin-7-yl]-N-[(3R,4S)-4-fluoro-1-[4,4,4-trifluoro-3-hydroxy-3-(trifluoromethyl)butanoyl]pyrrolidin-3-yl]-5-methoxybenzamide] | 0.0027 |
| COc1cc(C(=O)N[C@@H]2CN(C(=O)[C@@](C)(O)C(F)(F)F)C[C@@H]2F)cc(-c2cc(C(F)(F)F)c3c(N)ncnn23)c1 [Example 578, 3-[4-amino-5-(trifluoromethyl)pyrrolo[2,1-f][1,2,4]triazin-7-yl]-N-[(3R,4S)-4-fluoro-1-[(2R)-3,3,3-trifluoro-2-hydroxy-2-methylpropanoyl]pyrrolidin-3-yl]-5-methoxybenzamide] | 0.0067 |
| COc1cc(C(=O)N[C@@H]2CN(C(=O)CC(C)(O)C(F)(F)F)C[C@@H]2F)cc(-c2cc(C(F)(F)F)c3c(N)ncnn23)c1 (stereo partly drawn) [Example 579, 3-[4-amino-5-(trifluoromethyl)pyrrolo[2,1-f][1,2,4]triazin-7-yl]-N-[(3R,4S)-4-fluoro-1-(4,4,4-trifluoro-3-hydroxy-3-methylbutanoyl)pyrrolidin-3-yl]-5-methoxybenzamide] | 0.024 |
| COc1cc(C(=O)N[C@@H]2CN(C(=O)C3CCC(F)(F)CC3)C[C@@H]2F)cc(-c2cc(C(F)(F)F)c3c(N)ncnn23)c1 [Example 580, 3-[4-amino-5-(trifluoromethyl)pyrrolo[2,1-f][1,2,4]triazin-7-yl]-N-[(3R,4S)-1-(4,4-difluorocyclohexanecarbonyl)-4-fluoropyrrolidin-3-yl]-5-methoxybenzamide] | 0.041 |
| COc1cc(C(=O)N[C@@H]2CN(C(=O)C3CC3(F)F)C[C@@H]2F)cc(-c2cc(C(F)(F)F)c3c(N)ncnn23)c1 (stereo partly drawn) [Example 581, 3-[4-amino-5-(trifluoromethyl)pyrrolo[2,1-f][1,2,4]triazin-7-yl]-N-[(3R,4S)-1-(2,2-difluorocyclopropanecarbonyl)-4-fluoropyrrolidin-3-yl]-5-methoxybenzamide] | 0.02 |
| CCC(O)(C(=O)N1C[C@H](F)[C@H](NC(=O)c2cc(OC)cc(-c3cc(C(F)(F)F)c4c(N)ncnn34)c2)C1)C(F)(F)F (stereo partly drawn) [Example 582, 3-[4-amino-5-(trifluoromethyl)pyrrolo[2,1-f][1,2,4]triazin-7-yl]-N-[(3R,4S)-4-fluoro-1-[2-hydroxy-2-(trifluoromethyl)butanoyl]pyrrolidin-3-yl]-5-methoxybenzamide] | 0.0054 |
| COc1cc(C(=O)N[C@@H]2CN(C(=O)CC(C)C(F)(F)F)C[C@@H]2F)cc(-c2cc(C(F)(F)F)c3c(N)ncnn23)c1 (stereo partly drawn) [Example 583, 3-[4-amino-5-(trifluoromethyl)pyrrolo[2,1-f][1,2,4]triazin-7-yl]-N-[(3R,4S)-4-fluoro-1-(4,4,4-trifluoro-3-methylbutanoyl)pyrrolidin-3-yl]-5-methoxybenzamide] | 0.0042 |
| COc1cc(C(=O)N[C@@H]2CN(C(=O)C3CC(F)(F)C3)C[C@@H]2F)cc(-c2cc(C(F)(F)F)c3c(N)ncnn23)c1 [Example 584, 3-[4-amino-5-(trifluoromethyl)pyrrolo[2,1-f][1,2,4]triazin-7-yl]-N-[(3R,4S)-1-(3,3-difluorocyclobutanecarbonyl)-4-fluoropyrrolidin-3-yl]-5-methoxybenzamide] | 0.01 |
| COc1cc(C(=O)N[C@@H]2CN(C(=O)C(C)(C)F)C[C@@H]2F)cc(-c2cc(C(F)(F)F)c3c(N)ncnn23)c1 [Example 585, 3-[4-amino-5-(trifluoromethyl)pyrrolo[2,1-f][1,2,4]triazin-7-yl]-N-[(3R,4S)-4-fluoro-1-(2-fluoro-2-methylpropanoyl)pyrrolidin-3-yl]-5-methoxybenzamide] | 0.049 |
| COc1cc(C(=O)N[C@@H]2CN(C(=O)CC(C(F)(F)F)C(F)(F)F)C[C@@H]2F)cc(-c2cc(C(F)(F)F)c3c(N)ncnn23)c1 [Example 586, 3-[4-amino-5-(trifluoromethyl)pyrrolo[2,1-f][1,2,4]triazin-7-yl]-N-[(3R,4S)-4-fluoro-1-[4,4,4-trifluoro-3-(trifluoromethyl)butanoyl]pyrrolidin-3-yl]-5-methoxybenzamide] | 0.0036 |
| COc1cc(C(=O)N[C@@H]2CN(C(=O)C3CCC(F)(F)C3)C[C@@H]2F)cc(-c2cc(C(F)(F)F)c3c(N)ncnn23)c1 (stereo partly drawn) [Example 587, 3-[4-amino-5-(trifluoromethyl)pyrrolo[2,1-f][1,2,4]triazin-7-yl]-N-[(3R,4S)-1-(3,3-difluorocyclopentanecarbonyl)-4-fluoropyrrolidin-3-yl]-5-methoxybenzamide] | 0.022 |
| COc1cc(C(=O)N[C@@H]2CN(C(=O)C(C)(C)O)C[C@@H]2F)cc(-c2cc(C(F)(F)F)c3c(N)ncnn23)c1 [Example 588, 3-[4-amino-5-(trifluoromethyl)pyrrolo[2,1-f][1,2,4]triazin-7-yl]-N-[(3R,4S)-4-fluoro-1-(2-hydroxy-2-methylpropanoyl)pyrrolidin-3-yl]-5-methoxybenzamide] | 0.157 |
| COc1cc(C(=O)N[C@@H]2CN(C(=O)CC(C)C)C[C@@H]2F)cc(-c2cc(C(F)(F)F)c3c(N)ncnn23)c1 [Example 589, 3-[4-amino-5-(trifluoromethyl)pyrrolo[2,1-f][1,2,4]triazin-7-yl]-N-[(3R,4S)-4-fluoro-1-(3-methylbutanoyl)pyrrolidin-3-yl]-5-methoxybenzamide] | 0.011 |
| COc1cc(C(=O)N[C@@H]2CN(C(=O)CC(F)(F)F)C[C@@H]2F)cc(-c2cc(C(F)(F)F)c3c(N)ncnn23)c1 [Example 590, 3-[4-amino-5-(trifluoromethyl)pyrrolo[2,1-f][1,2,4]triazin-7-yl]-N-[(3R,4S)-4-fluoro-1-(3,3,3-trifluoropropanoyl)pyrrolidin-3-yl]-5-methoxybenzamide] | 0.108 |
